# In PubChem BioAssay AID624418 (National Center for Advancing Translational Sciences (NCATS), 2012):
# In all, about 410,000 compounds went through this assay and about 530 (0.13%) were called active. This list was built around the results that the source calls inconclusive (neither active nor inactive); the mix of calls is not that of the screen. Calls come from the whole dose curve; as a rule, active = well fitted inhibition curve with a large enough effect; inconclusive = small, poorly fitted or top-dose-only effect, or another doubt; inactive = no such curve, though single readings can be large or run the other way. Where the call is inconclusive, the potency comes from a doubtful curve fit.
# Experiment: qHTS of GLP-1 Receptor Inverse Agonists: Cytotox Screen
# Conditions: HEK293 cAMP-luciferase reporter cells, luminescence, 24 h; activity change, negative = inhibition: at 38.3 µM (top of the series) unless noted
# In short: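 1536-well qHTS counterscreen of the MLSMR; 200 cells/uL, 12 h pre-incubation, 23 nL cpd, 24 h at 37 deg C 5% CO2, luciferase detection reagent, 12 min RT, luminescence. Inhibition = undesired.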
# % is set by controls: 0 for no effect and ±100 for the full control effect; potency is the fitted concentration of half-maximal effect.
SMILES,Potency,"activity change, negative = inhibition"
Cc1ccc(S(=O)(=O)CCC(=O)Nc2nc(-c3ccccn3)cs2)cc1,"inconclusive: 31.6 µM [inhibitor, single point]",
O=C(NNc1ccc([N+](=O)[O-])cn1)Nc1ccc(N=Nc2ccccc2)cc1,"inconclusive: 8.91 µM [inhibitor, partial curve, poor fit]",
O=C(CCCN1C(=O)/C(=C/c2ccco2)SC1=S)Nc1ccccc1C(=O)O,"inconclusive: 28.2 µM [inhibitor, single point]",
C[C@]12c3[nH]c4ccccc4c3CCN1C(=O)C(CC(=O)NCc1ccco1)C[C@@H]2C(=O)N1CCOCC1 (stereo partly drawn),inactive,
Cc1ccsc1C(=O)Nc1nnc(-c2ccco2)o1,"inconclusive: 28.2 µM [inhibitor, partial curve, poor fit]",
CC(C#N)Sc1ncnc2sc3c(c12)CCC3 (stereo not drawn),inactive,
CCCCSc1nnc2c(n1)OC(c1ccc(Br)s1)Nc1ccccc1-2 (stereo not drawn),inactive,
COC(=O)Cn1ncc2c3ccccc3n(C)c2c1=O,inactive,
CC(C)C(Cl)=NOC(=O)Nc1ccc(F)cc1,"inconclusive: 10 µM [inhibitor, partial curve, poor fit]",
Cc1cccc2nc(-c3ccccn3)c(Nc3ccccc3)n12,"inconclusive: 12.6 µM [inhibitor, single point]",
COc1cc2nc(Nc3cccc(F)c3)nc(N)c2cc1OC,"inconclusive: 10 µM [inhibitor, partial curve]",
Cc1ccc2nsnc2c1NC(=O)c1ccc2c(c1)OCCO2,"inconclusive: 0.501 µM [inhibitor, full curve, poor fit]",
Cc1cccc2c1-c1sc(C(=O)NCCCN3CCc4ccccc4C3)cc1CO2,"inconclusive: 10 µM [inhibitor, single point]",
Cc1ccc(-n2ncc(C(=O)N3CCc4ccccc4C3)c2NC(=O)c2ccco2)cc1C,"inconclusive: 11.2 µM [inhibitor, single point]",
CCOC(=O)Cc1ccc(Nc2nc3cc(-c4sccc4C)sc3c(=O)n2C)cc1,"inconclusive: 5.62 µM [inhibitor, full curve, poor fit]",
CCCCN(C)C(=O)c1ccc2c(=O)n3nc(Nc4cc(C)ccc4C)sc3nc2c1,inactive,
N#Cc1ccsc1NC(=O)c1ccccn1,"inconclusive: 14.1 µM [inhibitor, partial curve, poor fit]",
O=C(O)C1CCN(c2ccc([N+](=O)[O-])cc2[N+](=O)[O-])CC1,"inconclusive: 11.2 µM [inhibitor, partial curve, poor fit]",
Cc1ccc(NC(=S)NC2CCN(Cc3ccccc3)CC2)cc1,,inactive: 2.54% [at 1.53 µM]
[O-]/[N+](=C\C=C\c1ccccc1)c1ccccc1,"inconclusive: 2 µM [inhibitor, partial curve, poor fit]",
CC[n+]1c(/C=C/N(C)c2ccccc2)n(-c2ccccc2)c2ccc(-c3nc4ccccc4s3)cc21,"inconclusive: 10 µM [inhibitor, partial curve, poor fit]",
COc1ccc(C(=O)Nn2c(C)nc3ccccc3c2=O)cc1[N+](=O)[O-],inactive,
CCOC(=O)c1cnc2ccc(OC)cc2c1NCc1ccccc1,inactive,

SMILES,Potency,"activity change, negative = inhibition"
Cc1ccc2c(Cl)cc(Cl)c(OCC(=O)NC3CCS(=O)(=O)C3)c2n1 (stereo not drawn),"inconclusive: 28.2 µM [inhibitor, single point]",
CCn1cc(C(=O)NCCN(CC(C)C)CC(C)C)c(=O)c2cc(S(=O)(=O)N3CCOCC3)ccc21,inactive,
COc1ccc(C(=O)N2CCCC(CNC(=O)c3ccc(F)cc3)C2)cc1OC (stereo not drawn),"inconclusive: 12.6 µM [inhibitor, single point]",
O=C(Nc1cc(Cl)cc(Cl)c1)c1cc(S(=O)(=O)NC2CCCC2)ccc1F,"inconclusive: 10 µM [inhibitor, single point]",
CCOc1ccc(-c2cnc3n2CCCCC3)cc1,"inconclusive: 2.82 µM [inhibitor, single point]",
Clc1cccc(CNc2nc(-c3cccnc3)nc3ccccc23)c1,"inconclusive: 25.1 µM [inhibitor, single point]",
Cc1cccc(N2CCN(C(=O)C3CCN(C(=O)c4cc5sccc5n4C)CC3)CC2C)c1 (stereo not drawn),"inconclusive: 3.55 µM [inhibitor, single point]",
CCC(C)S(=O)(=O)c1oc(-c2cccs2)nc1S(=O)(=O)c1ccccc1 (stereo not drawn),"inconclusive: 11.2 µM [inhibitor, partial curve, poor fit]",
Cc1cc(Cl)c(OCCCn2ccnc2)c(Br)c1,"inconclusive: 28.2 µM [inhibitor, single point]",
Cc1cccc(NC(=S)N(CCN2CCOCC2)Cc2cc3cc4c(cc3[nH]c2=O)OCCO4)c1,inactive,
CCCCSc1n[nH]c(=S)c2nc[nH]c12,"inconclusive: 7.08 µM [inhibitor, partial curve, poor fit]",
COc1c(/C=N/NC(N)=S)c(C)nn1-c1ccccc1,"inconclusive: 12.6 µM [inhibitor, single point]",
Cc1cc(=O)oc2c(CN3CCCC3)c(O)c(Cl)cc12,inactive,
CCN(CC)CCOC(=O)c1ccc(NC(=O)/C=C/c2cccs2)cc1,inactive,
COC(=O)c1ccc(NC(=S)N2CCN(Cc3ccccc3)CC2)cc1,inactive,
O=C(N/N=C/c1cc(Br)cc(Cl)c1O)c1ccc2c(c1)OCO2,"inconclusive: 1.12 µM [inhibitor, full curve, poor fit]",
Cc1cccc(/C=C/C(=O)c2ccc(NC3=NCCCS3)cc2)c1,inactive,
CC(Oc1cccc(Cl)c1)C(=O)Nc1nc(-c2ccccn2)cs1 (stereo not drawn),"inconclusive: 3.16 µM [inhibitor, partial curve]",
O=C1C(O)=CC(=C(c2ccccc2)c2ccccc2)c2ccccc21,"inconclusive: 14.1 µM [inhibitor, partial curve, poor fit]",
CCc1nnc(NC(=O)CN2CCN(C3CCCCC3)CC2)s1,"inconclusive: 3.16 µM [inhibitor, full curve]",
CCOCc1cc(CN2CCN(c3cccc(C(F)(F)F)c3)CC2)c(O)c2ncccc12,"inconclusive: 5.62 µM [inhibitor, full curve, poor fit]",
Cc1nc2ccccc2c2oc(C(=O)Nc3ccc4c(c3)OCCO4)cc12,inactive,
C/C(=N\Nc1ccc([N+](=O)[O-])cc1)c1ccc(-n2nncc2C)cc1,"inconclusive: 28.2 µM [inhibitor, single point]",

SMILES,Potency,"activity change, negative = inhibition"
CCOC(=O)c1nc2sc(C)c(C)c2c(=O)[nH]1,inactive,
CCN1C(=O)[C@H]2[C@H]3CN=C(SCc4ccc(C#N)cc4)N3[C@@](C)(C(=O)OC)[C@H]2C1=O,inactive,
COC(=O)[C@@]1(Cc2ccc(F)cc2)[C@H]2c3cc(C(=O)N(C)C)n(C[C@H](O)CO)c3C[C@H]2CN1C(=O)c1ccccc1,"inconclusive: 7.08 µM [inhibitor, partial curve, poor fit]",
CCCCCc1cc(=O)oc2c(C(CCN(CC)CC)c3ccc(OC)cc3)c(OC)cc(OC)c12 (stereo not drawn),"inconclusive: 14.1 µM [inhibitor, single point]",
CN1C(C(=O)Nc2cccc(O)c2)=CC(c2cccs2)=NS1(=O)=O,"inconclusive: 15.8 µM [inhibitor, partial curve, poor fit]",
COc1ccc(C)cc1NC(=O)CSc1nnc(-c2cc3cccc(OC)c3o2)n1N,"inconclusive: 11.2 µM [inhibitor, partial curve, poor fit]",
CN(C)c1ccc(C(=S)Nc2ccccc2)cc1,inactive,
CC1CC(C)CN(C(=S)NC2CCCCC2)C1 (stereo not drawn),"inconclusive: 14.1 µM [inhibitor, single point]",
Cc1ccc2[nH]c(=O)c(CN(Cc3cccnc3)Cc3nnnn3CCN3CCOCC3)cc2c1,inactive,
COc1ccccc1Nc1nc(C)nc(N)c1S(=O)(=O)c1ccccc1,inactive,
Cc1c(C(=O)N2CCOCC2)c(S(=O)(=O)Nc2ccc(F)cc2)c(C)n1C,inactive,
CCOC(=O)C1(Cc2cccc(OC)c2)CCN(C/C=C/c2ccc(OC)cc2)CC1,"inconclusive: 12.6 µM [inhibitor, single point]",
COc1cc(C(=O)OCC(=O)NC(=O)c2cccn2C)ccc1OC(F)F,"inconclusive: 3.98 µM [inhibitor, partial curve]",
CCOC(=O)N1CCC(N2Cc3cccc(C(=O)Nc4ccccc4OC)c3C2=O)CC1,"inconclusive: 6.31 µM [inhibitor, partial curve, poor fit]",
Cc1cc(N2C3CCC2CC(O)(c2ccc(F)cc2)C3)nc(-c2ccccc2)n1 (stereo not drawn),inactive,
COc1ccc(CNC(=O)c2ccc(Cn3c(=O)c4cccn4c4cccnc43)cc2)c(OC)c1,inactive,
O=C1c2c(O)cccc2C(C2OC(CO)[C@@H](O)[C@H](O)[C@H]2O)c2cc(CO)cc(O)c21 (stereo partly drawn),"inconclusive: 1.26 µM [inhibitor, full curve, poor fit]",
S=C(N/N=C/c1ccc2c(c1)OCO2)NC1CC2CCC1C2 (stereo not drawn),"inconclusive: 0.447 µM [inhibitor, full curve, poor fit]",
COc1ccccc1P(=O)(c1ccccc1)c1ccc([N+](=O)[O-])cc1 (stereo not drawn),inactive,
C=CCn1c(O)c(N=NC(=S)Nc2ccc(OC)cc2)c2ccccc21,"inconclusive: 2.82 µM [inhibitor, full curve]",
CC(=O)Cn1ncc(Br)c(Br)c1=O,inactive,
CCN1CCN(c2ccc(NC(=O)c3ccc4c(c3)[nH]c(=O)n4Cc3ccc(F)cc3)cc2)CC1,"inconclusive: 7.94 µM [inhibitor, partial curve, poor fit]",
